# Measured values taken from the supplement of paper PMC8728848.
# The other results are listed elsewhere or left out.
# Experiments:
# Assay in all cases: glycan array binding signal (z-score within array); higher = stronger binding
# Details in all cases: glycan notation: IUPAC condensed, linker removed
# [1] = biological target: Neu5Ac(a2-3)Gal(b1-3)GlcNAc
# How it was run: (§1)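 Negative Z-scores can be read as non-binding. The Z-score is calculated within each array and then averaged across arrays of one protein sequence at different concentrations or buffers and across linkers. Arrays, 3228 in all, were curated from the Consortium for Functional Glycomics database and kept only where the protein sequence was available.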
# [2] = biological target: Neu5Ac(a2-3)Gal(b1-3)GlcNAc(b1-2)Man
# How it was run: as §1
# [3] = biological target: Neu5Ac(a2-3)Gal(b1-3)GlcNAc(b1-2)Man(a1-3)[GlcNAc(b1-4)][Neu5Ac(a2-3)Gal(b1-3)GlcNAc(b1-2)Man(a1-6)]Man(b1-4)GlcNAc(b1-4)GlcNAc
# How it was run: as §1
# [4] = biological target: Neu5Ac(a2-3)Gal(b1-3)GlcNAc(b1-2)Man(a1-3)[Neu5Ac(a2-3)Gal(b1-3)GlcNAc(b1-2)Man(a1-6)]Man(b1-4)GlcNAc(b1-4)GlcNAc
# How it was run: as §1
# [5] = biological target: Neu5Ac(a2-3)Gal(b1-3)GlcNAc(b1-3)Gal(b1-3)GlcNAc
# How it was run: as §1
# [6] = biological target: Neu5Ac(a2-3)Gal(b1-3)GlcNAc(b1-3)Gal(b1-4)GlcNAc
# How it was run: as §1
# [7] = biological target: Neu5Ac(a2-3)Gal(b1-3)GlcNAc(b1-3)GalNAc
# How it was run: as §1
# [8] = biological target: Neu5Ac(a2-3)Gal(b1-3)GlcNAc(b1-4)Gal(b1-4)Glc
# How it was run: as §1
# [9] = biological target: Neu5Ac(a2-3)Gal(b1-3)GlcNAc(b1-6)GalNAc
# How it was run: as §1
# [10] = biological target: Neu5Ac(a2-3)Gal(b1-3)GlcNAc6S
# How it was run: as §1
# [11] = biological target: Neu5Ac(a2-3)Gal(b1-3)[Fuc(a1-4)]GlcNAc
# How it was run: as §1
# [12] = biological target: Neu5Ac(a2-3)Gal(b1-3)[Fuc(a1-4)]GlcNAc(b1-3)Gal(b1-3)[Fuc(a1-4)]GlcNAc
# How it was run: as §1
# [13] = biological target: Neu5Ac(a2-3)Gal(b1-3)[Fuc(a1-4)]GlcNAc(b1-3)Gal(b1-4)[Fuc(a1-3)]GlcNAc
# How it was run: as §1
# [14] = biological target: Neu5Ac(a2-3)Gal(b1-3)[GlcNAc(b1-6)]GalNAc
# How it was run: as §1
# [15] = biological target: Neu5Ac(a2-3)Gal(b1-3)[Neu5Ac(a2-3)Gal(b1-4)]GlcNAc
# How it was run: as §1
# [16] = biological target: Neu5Ac(a2-3)Gal(b1-3)[Neu5Ac(a2-6)]GalNAc
# How it was run: as §1
# [17] = biological target: Neu5Ac(a2-3)Gal(b1-3)[Neu5Ac(a2-6)]GlcNAc(b1-3)[Fuc(a1-3)[Gal(b1-4)]GlcNAc(b1-6)]Gal(b1-4)Glc
# How it was run: as §1
# [18] = biological target: Neu5Ac(a2-3)Gal(b1-3)]Neu5Ac(a2-3)Gal(b1-4)]GlcNAc
# How it was run: as §1
# Neu5Ac(a2-3)Gal(b1-4)Glc = biological target: Neu5Ac(a2-3)Gal(b1-4)Glc
# How it was run: as §1
# [19] = biological target: Neu5Ac(a2-3)Gal(b1-4)GlcNAc
# How it was run: as §1
# [20] = biological target: Neu5Ac(a2-3)Gal(b1-4)GlcNAc(b1-2)Man
# How it was run: as §1
# [21] = biological target: Neu5Ac(a2-3)Gal(b1-4)GlcNAc(b1-2)Man(a1-3)[GlcNAc(b1-4)][Neu5Ac(a2-3)Gal(b1-4)GlcNAc(b1-2)Man(a1-6)]Man(b1-4)GlcNAc(b1-4)GlcNAc
# How it was run: as §1
# [22] = biological target: Neu5Ac(a2-3)Gal(b1-4)GlcNAc(b1-2)Man(a1-3)[Neu5Ac(a2-3)Gal(b1-4)GlcNAc(b1-2)Man(a1-6)]Man(b1-4)GlcNAc(b1-4)GlcNAc
# How it was run: as §1
# [23] = biological target: Neu5Ac(a2-3)Gal(b1-4)GlcNAc(b1-2)Man(a1-3)[Neu5Ac(a2-3)Gal(b1-4)GlcNAc(b1-2)Man(a1-6)]Man(b1-4)GlcNAc(b1-4)[Fuc(a1-6)]GlcNAc
# How it was run: as §1
# [24] = biological target: Neu5Ac(a2-3)Gal(b1-4)GlcNAc(b1-2)Man(a1-3)[Neu5Ac(a2-6)Gal(b1-4)GlcNAc(b1-2)Man(a1-6)]Man(b1-4)GlcNAc(b1-4)GlcNAc
# How it was run: as §1
# [25] = biological target: Neu5Ac(a2-3)Gal(b1-4)GlcNAc(b1-2)[Neu5Ac(a2-3)Gal(b1-4)GlcNAc(b1-4)]Man(a1-3)[GlcNAc(b1-4)][Neu5Ac(a2-3)Gal(b1-4)GlcNAc(b1-2)[Neu5Ac(a2-3)Gal(b1-4)GlcNAc(b1-6)]Man(a1-6)]Man(b1-4)GlcNAc(b1-4)GlcNAc
# How it was run: as §1
# [26] = biological target: Neu5Ac(a2-3)Gal(b1-4)GlcNAc(b1-2)[Neu5Ac(a2-3)Gal(b1-4)GlcNAc(b1-4)]Man(a1-3)[GlcNAc(b1-4)][Neu5Ac(a2-3)Gal(b1-4)GlcNAc(b1-4)Man(a1-6)]Man(b1-4)GlcNAc(b1-4)GlcNAc
# How it was run: as §1
# [27] = biological target: Neu5Ac(a2-3)Gal(b1-4)GlcNAc(b1-2)[Neu5Ac(a2-3)Gal(b1-4)GlcNAc(b1-6)]Man(a1-6)[Neu5Ac(a2-3)Gal(b1-4)GlcNAc(b1-2)Man(a1-3)]Man(b1-4)GlcNAc(b1-4)GlcNAc
# How it was run: as §1
# [28] = biological target: Neu5Ac(a2-3)Gal(b1-4)GlcNAc(b1-2)[Neu5Ac(a2-3)Gal(b1-4)GlcNAc(b1-6)]Man(a1-6)[Neu5Ac(a2-3)Gal(b1-4)GlcNAc(b1-2)Man(a1-3)][GlcNAc(b1-4)]Man(b1-4)GlcNAc(b1-4)GlcNAc
# How it was run: as §1
# [29] = biological target: Neu5Ac(a2-3)Gal(b1-4)GlcNAc(b1-3)Gal
# How it was run: as §1
# [30] = biological target: Neu5Ac(a2-3)Gal(b1-4)GlcNAc(b1-3)Gal(b1-3)GlcNAc
# How it was run: as §1
# [31] = biological target: Neu5Ac(a2-3)Gal(b1-4)GlcNAc(b1-3)Gal(b1-4)GlcNAc
# How it was run: as §1
# [32] = biological target: Neu5Ac(a2-3)Gal(b1-4)GlcNAc(b1-3)Gal(b1-4)GlcNAc(b1-2)Man(a1-3)[Neu5Ac(a2-3)Gal(b1-4)GlcNAc(b1-3)Gal(b1-4)GlcNAc(b1-2)Man(a1-6)]Man(b1-4)GlcNAc(b1-4)GlcNAc
# How it was run: as §1
# [33] = biological target: Neu5Ac(a2-3)Gal(b1-4)GlcNAc(b1-3)Gal(b1-4)GlcNAc(b1-3)Gal(b1-4)GlcNAc
# How it was run: as §1
# [34] = biological target: Neu5Ac(a2-3)Gal(b1-4)GlcNAc(b1-3)Gal(b1-4)GlcNAc(b1-3)Gal(b1-4)GlcNAc(b1-2)Man(a1-3)[Neu5Ac(a2-3)Gal(b1-4)GlcNAc(b1-3)Gal(b1-4)GlcNAc(b1-3)Gal(b1-4)GlcNAc(b1-2)Man(a1-6)]GalNAc
# How it was run: as §1
# [35] = biological target: Neu5Ac(a2-3)Gal(b1-4)GlcNAc(b1-3)Gal(b1-4)GlcNAc(b1-3)GalNAc
# How it was run: as §1
# [36] = biological target: Neu5Ac(a2-3)Gal(b1-4)GlcNAc(b1-3)Gal(b1-4)GlcNAc(b1-3)[Neu5Ac(a2-3)Gal(b1-4)GlcNAc(b1-3)Gal(b1-4)GlcNAc(b1-6)]GalNAc
# How it was run: as §1
# [37] = biological target: Neu5Ac(a2-3)Gal(b1-4)GlcNAc(b1-3)Gal(b1-4)GlcNAc(b1-6)[Gal(b1-3)]GalNAc
# How it was run: as §1
# [38] = biological target: Neu5Ac(a2-3)Gal(b1-4)GlcNAc(b1-3)Gal(b1-4)[Fuc(a1-3)]GlcNAc
# How it was run: as §1
# [39] = biological target: Neu5Ac(a2-3)Gal(b1-4)GlcNAc(b1-3)GalNAc
# How it was run: as §1
# [40] = biological target: Neu5Ac(a2-3)Gal(b1-4)GlcNAc(b1-3)[Neu5Ac(a2-3)Gal(b1-4)GlcNAc(b1-6)]GalNAc
# How it was run: as §1
# [41] = biological target: Neu5Ac(a2-3)Gal(b1-4)GlcNAc(b1-6)GalNAc
# How it was run: as §1
# [42] = biological target: Neu5Ac(a2-3)Gal(b1-4)GlcNAc(b1-6)[Gal(b1-3)]GalNAc
# How it was run: as §1
# [43] = biological target: Neu5Ac(a2-3)Gal(b1-4)GlcNAc(b1-6)[Neu5Ac(a2-3)Gal(b1-3)]GalNAc
# How it was run: as §1
# [44] = biological target: Neu5Ac(a2-3)Gal(b1-4)GlcNAc6S
# How it was run: as §1
binder,measurement,setting,value
"ECA (Erythrina cristagalli), P83410 (protein) VETISFSFSEFEPGNDNLTLQGAALITQSGVLQLTKINQNGMPAWDSTGRTLYTKPVHMWDSTTGTVASFETRFSFSIEQPYTRPLPADGLVFFMGPTKSKPAQGYGYLGVFNNSKQDNSYQTLAVEFDTFSNPWDPPQVPHIGIDVNSIRSIKTQPFQLDNGQVANVVIKYDAPSKILHVVLVYPSSGAIYTIAEIVDVKQVLPDWVDVGLSGATGAQRDAAETHDVYSWSFQASLPE",glycan array binding signal (z-score),[1],-0.269
same,glycan array binding signal (z-score),[2],0.503
same,glycan array binding signal (z-score),[3],-0.349
same,glycan array binding signal (z-score),[4],-1.87
same,glycan array binding signal (z-score),[5],-0.307
same,glycan array binding signal (z-score),[6],-0.246
same,glycan array binding signal (z-score),[7],-0.115
same,glycan array binding signal (z-score),[8],-0.476
same,glycan array binding signal (z-score),[9],-0.202
same,glycan array binding signal (z-score),[10],-0.018
same,glycan array binding signal (z-score),[11],-0.312
same,glycan array binding signal (z-score),[12],-0.144
same,glycan array binding signal (z-score),[13],0.104
same,glycan array binding signal (z-score),[14],-0.225
same,glycan array binding signal (z-score),[15],-0.268
same,glycan array binding signal (z-score),[16],-0.146
same,glycan array binding signal (z-score),[17],-0.417
same,glycan array binding signal (z-score),[18],-0.27
same,glycan array binding signal (z-score),Neu5Ac(a2-3)Gal(b1-4)Glc,-0.082
same,glycan array binding signal (z-score),[19],-0.276
same,glycan array binding signal (z-score),[20],0.078
same,glycan array binding signal (z-score),[21],-0.395
same,glycan array binding signal (z-score),[22],-0.278
same,glycan array binding signal (z-score),[23],-0.372
same,glycan array binding signal (z-score),[24],-0.288
same,glycan array binding signal (z-score),[25],-0.571
same,glycan array binding signal (z-score),[26],-0.147
same,glycan array binding signal (z-score),[27],1.04
same,glycan array binding signal (z-score),[28],-0.268
same,glycan array binding signal (z-score),[29],-0.496
same,glycan array binding signal (z-score),[30],-0.382
same,glycan array binding signal (z-score),[31],-0.328
same,glycan array binding signal (z-score),[32],2.16
same,glycan array binding signal (z-score),[33],-0.331
same,glycan array binding signal (z-score),[34],7.35
same,glycan array binding signal (z-score),[35],-0.407
same,glycan array binding signal (z-score),[36],0.167
same,glycan array binding signal (z-score),[37],0.412
same,glycan array binding signal (z-score),[38],-0.266
same,glycan array binding signal (z-score),[39],-0.276
same,glycan array binding signal (z-score),[40],-0.085
same,glycan array binding signal (z-score),[41],-0.257
same,glycan array binding signal (z-score),[42],-0.368
same,glycan array binding signal (z-score),[43],-0.123
same,glycan array binding signal (z-score),[44],-0.277
